According to PubChem BioAssay AID504832 (National Center for Advancing Translational Sciences (NCATS), 2011):
Among all 310,000 compounds or so, about 18,000 (5.8%) were called active. Inconclusive results, whose numbers are uncertain, are shown with a selection of clear calls. The call rests on the fitted dose curve; in most records, active means well fitted inhibition curve with a large enough effect; inconclusive means small, poorly fitted or top-dose-only effect, or another doubt; inactive means no such curve, though single readings can be large or run the other way. No potency is given beside an inconclusive call; the fits are too rough.

assay: Primary qHTS for delayed death inhibitors of the malarial parasite plastid, 48 hour incubation; conditions: P. falciparum luciferase growth in erythrocytes; series mostly up to 28.7 µM; activity change, negative = inhibition: at the top concentration
Summary of the method: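 Firefly luciferase activity from engineered P. falciparum reports growth; inhibitors lower the luminescent signal. Cultures contained 2% hematocrit erythrocytes at 0.1% final parasitemia.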
On the % scale 0 is the no-effect control and ±100 the full control effect; potency means the concentration at half of the fitted maximal effect; tags describe the fitted curve by direction and shape.

SMILES | Potency | activity change, negative = inhibition
CCOc1ccc(NC(=O)CN(C)C(=O)Cc2n[nH]c(=O)c3ccccc23)cc1OCC | inconclusive [inhibitor, partial curve] | –
S=C1NC[C@H](Cc2ccccc2)N1CCCCC1CCCCC1 | inconclusive [inhibitor, partial curve, poor fit] | –
COc1cc(CNCCc2ccc3c(c2)OCO3)ccc1O | inconclusive [inhibitor, single point] | –
CCOc1ccc(NC(=S)N(CCN2CCOCC2)Cc2cc3cc4c(cc3[nH]c2=O)OCO4)cc1 | inconclusive [inhibitor, single point] | –
O=C(NC1CCCC1)C(Cc1ccccc1)n1cccc1 (configuration not stated) | – | inactive: 4.3%
CCSc1nnc(-c2cccc(S(=O)(=O)N(C)C)c2)n1-c1cc(OC)ccc1OC | inconclusive [inhibitor, partial curve] | –
CCOC(=O)c1ccc(N2C(=O)CC(N3CCC(C#N)(c4ccccc4)CC3)C2=O)cc1 (configuration not stated) | inconclusive [inhibitor, partial curve, poor fit] | –
C#CC[N+]1(CC#Cc2ccc(C)cc2)CCCCC1 | active: 1.65 µM | –
COc1cc(NC(=O)CSc2nc3[nH]ncc3c(=O)n2-c2ccc(Cl)cc2)cc(OC)c1 | inconclusive [inhibitor, partial curve, poor fit] | –
CCc1noc(C)c1C(=O)N1CCN(S(=O)(=O)c2ccc(Br)cc2Cl)CC1 | inconclusive [inhibitor, single point] | –
O=C(CSc1nnc(Cc2ccccc2)o1)c1ccccc1 | – | inactive: 26%
NC(=O)C1CCN(C(=O)c2ccc(NS(=O)(=O)c3ccc(F)cc3)cc2)CC1 | inconclusive [inhibitor, single point] | –
NC(=O)CSc1nnc(-c2cccs2)n1-c1ccccc1 | inconclusive [inhibitor, single point] | –
COc1ccc(Oc2cn[nH]c2-c2ccc(O)cc2O)cc1 | inconclusive [inhibitor, partial curve] | –
O=c1c2ccccc2n(Cc2ccc(Cl)cc2)c(=O)n1Cc1ccco1 | inconclusive [inhibitor, single point] | –
CCOC(=O)CCSc1nc(C)c2ccccc2n1 | – | inactive: 55.9%
COc1cc(OC)c(NC(=O)C2CC(=O)N(c3ccc4c(c3)OCCO4)C2)cc1Cl (configuration not stated) | – | inactive: -5.11%
COc1ccc(C2C3=C(CC(C)(C)CC3=O)Oc3ncn(CC(C)C)c(=N)c32)cc1 (configuration not stated) | inconclusive [inhibitor, partial curve, poor fit] | –
C=C(C)C1CC=C(C)/C(=N/NC(=O)CNc2ccc(OCC)cc2)C1 (configuration not stated) | inconclusive [inhibitor, partial curve] | –
COc1ccc2c(=O)c3c(=O)n(Cc4ccco4)c(-c4ccc(C)cc4)nc3oc2c1 | inconclusive [inhibitor, partial curve] | –
Cc1ccccc1C(=O)NNC(=S)NC(=O)c1cccs1 | inconclusive [inhibitor, single point] | –
CCN(CC)CCOC(=O)C1(C2CCCCC2)CCCCC1 | inconclusive [inhibitor, partial curve, poor fit] | –
CCOc1cc(CN2CCCC(C(=O)c3cccc(C(F)(F)F)c3)C2)ccc1O (configuration not stated) | active: 5.22 µM | –

SMILES | Potency | activity change, negative = inhibition
CCN(CC)CCNC(=O)c1ccc(NC(=O)c2c(F)cccc2Cl)cc1 | – | inactive: -17.4%
COc1ccc(-c2ccnc3nc(-n4cccc4)nn23)cc1 | inconclusive [inhibitor, single point] | –
CCCn1c(SCC(=O)c2[nH]c(C)c(C(C)=O)c2C)n[nH]c1=O | – | inactive: 33.4%
COCCNCCCCSc1ccc(Cl)cc1 | inconclusive [inhibitor, partial curve, poor fit] | –
O=C(N/N=C/C(Cl)=C/c1ccccc1)c1ccccn1 | – | inactive: -45%
CCN(CC)C(=O)C1CCCN(c2ccc([N+](=O)[O-])cc2/C=N/NC(=O)c2cccc(Br)c2)C1 (configuration not stated) | active: 4.15 µM | –
COc1ccccc1N1CCN(C(=O)c2cc3c(s2)CCCCC3)CC1 | inconclusive [inhibitor, partial curve, poor fit] | –
Cc1cc(S(=O)(=O)N(Cc2ccc(C(C)(C)C)cc2)Cc2cccs2)ccc1-n1cnnn1 | inconclusive [inhibitor, single point] | –
Cc1ccc(S(=O)(=O)N(CC(=O)NCc2ccco2)C2CCCCC2)cc1 | inconclusive [inhibitor, partial curve, poor fit] | –
COc1cc2c(c(OC)c1OC)-c1ccc(NC(=O)c3ccccc3)c(=O)cc1[C@@H](NC(C)=O)CC2 | active: 9.28 µM | –
O=C(CSc1ccc2nnc(-c3cccc(F)c3)n2n1)NCc1ccco1 | inconclusive [inhibitor, single point] | –
COc1ccccc1-n1c(SCC(=O)NCC2CCCO2)nc2c([nH]c3ccccc32)c1=O (configuration not stated) | – | inactive: 0%
CCOc1ccc(CCNC(=O)c2cn(C)c3ccc(S(=O)(=O)N4CCOCC4)cc3c2=O)cc1OCC | active: 11.7 µM | –
C=CCN(CC=C)S(=O)(=O)c1ccc(NC(=S)NC(=O)c2ccco2)cc1 | inconclusive [inhibitor, single point] | –
CC(C)C(=O)Nc1c2c(nc3ccccc13)N(C)CC2 | inconclusive [inhibitor, full curve, poor fit] | –
CC(C)(C)C(=O)O/N=C(\N)COc1cccc(Cl)c1 | inconclusive [inhibitor, single point] | –
CCOC(=O)c1ccccc1NC(=O)c1ccccc1N(C)S(C)(=O)=O | – | inactive: -5.38%
Cc1ccc2c(CN(C)Cc3ccc(Cl)cc3)cc(=O)oc2c1 | inconclusive [inhibitor, single point] | –
CCOc1ccc(C(C)=O)cc1COc1cccnc1[N+](=O)[O-] | – | inactive: 22.4%
COc1ccc(Nc2nc(-c3cccc([N+](=O)[O-])c3)nc3ccccc23)c(OC)c1 | inconclusive [inhibitor, partial curve, poor fit] | –
O=S(=O)(c1ccccc1F)N1CCCc2ccccc21 | inconclusive [inhibitor, single point] | –
CCCOC(=O)c1cc(NC(=O)/C=C/c2ccccc2)ccc1O | inconclusive [inhibitor, single point] | –
CCc1sc(C(=O)Nc2cccnc2)cc1Br | inconclusive [inhibitor, full curve, poor fit] | –

SMILES | Potency | activity change, negative = inhibition
COc1ccc(S(=O)(=O)Nc2cc(C)on2)cc1NC(C)=O | – | inactive: -8.24%
Cc1ccc(C(=O)C(C)OC(=O)Cc2n[nH]c(=O)c3ccccc23)cc1 (configuration not stated) | inconclusive [inhibitor, partial curve, poor fit] | –
O=C(/C=C/c1ccccc1Cl)NCCc1ccccc1 | inconclusive [inhibitor, single point] | –
CCN(CCCNC(=O)C1CCCN(S(=O)(=O)CC)C1)c1cccc(C)c1 (configuration not stated) | inconclusive [inhibitor, single point] | –
Cc1ccc(OCC(=O)Nc2cc(S(=O)(=O)N3CCOCC3)ccc2N2CCCC2)cc1 | inconclusive [inhibitor, partial curve, poor fit] | –
O=C(O/N=C1/CCCc2occc21)c1ccc(Cl)cc1Cl | inconclusive [inhibitor, single point] | –
CCOC(=O)c1c(NC(=O)c2ccc(S(=O)(=O)N3CCOCC3)cc2)sc2c1CCN(C(C)C)C2 | inconclusive [inhibitor, single point] | –
O=C(CCc1nc(-c2ccccc2Cl)no1)NCc1ccco1 | – | inactive: -12.1%
CC1Cc2cc(/C(O)=C3/C(=O)C(=O)N(Cc4ccco4)C3c3cccs3)ccc2O1 (configuration not stated) | – | inactive: 41.1%
CC(/C=N\NC(=O)c1cc(C)oc1C)=C\c1ccccc1 | – | inactive: 0%
CCCN1CCN(C(=O)C2CCCN(c3ncnc4c3nc3n4CCCCC3)C2)CC1 (configuration not stated) | inconclusive [inhibitor, partial curve] | –
COc1ccc(-n2nc(C(=O)NCC(=O)NCCCN3CCC(C)CC3)c3ccccc3c2=O)cc1Cl | inconclusive [inhibitor, single point] | –
CCc1cccc(N(CC(=O)NC2CCCCC2)C(=O)c2csnn2)c1 | – | inactive: -11.6%
Cc1ccc(S(=O)(=O)N2CCN(C(=O)CCc3nc4ccccc4c(=O)[nH]3)CC2)c(C)c1 | inconclusive [inhibitor, partial curve] | –
CC(=O)Nc1ccc(S(=O)(=O)N2C(C)CCCC2C)cc1 (configuration not stated) | – | inactive: 5.07%
COc1ccc(CCN2C(=O)CC(N3CCN(C/C=C/c4ccccc4)CC3)C2=O)cc1OC (configuration not stated) | inconclusive [inhibitor, partial curve] | –
O=C(c1cccc(S(=O)(=O)N2CCCCC2)c1)N1CCN(Cc2ccccc2)CC1 | inconclusive [inhibitor, single point] | –
COc1ccc(OC)c(/C=N\NC(=O)CC(=O)NCCc2ccccc2)c1 | inconclusive [inhibitor, single point] | –
O=C1CCN(Cc2ccccc2)S(=O)(=O)c2ccccc21 | inconclusive [inhibitor, partial curve, poor fit] | –
O=C1N/C(=N/N=C/c2ccco2)SC1Cc1ccccc1 (configuration not stated) | inconclusive [inhibitor, partial curve, poor fit] | –
CCn1c(=O)c2ccccc2n(CC(=O)N2CCCc3ccccc32)c1=O | – | inactive: -13.9%
